# Test results published in the supplement of paper PMC7125110.
# ± gives the standard error. This sample is rich in variants without activity.
# B1: glmS ribozyme (parent)
# chain: AUAAAAGCGCCAGAACUACAGAAAUGUAGUUGACGAGGAGGAGGUUUAUCGAAUUUUCGGCGGAUGCCUCCAAA
# Experiments:
# Conditions in all cases: with glucosamine-6-phosphate
# glucosamine-6-phosphate [1] = variants of: B1; experiment: self-cleavage kobs at 40 uM GlcN6P; higher = faster cleavage; RNA array
# Method in brief: (§1)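 Tiles bearing barcoded ribozyme variants, transcribed in situ by E. coli RNA polymerase on sequenced MiSeq chips, were imaged over ~14 h at 37 °C using a hybridised Cy3 probe. Glucosamine-6-phosphate was supplied at 40 μM to 10 mM in HEPES/KCl/Mg(OAc)2 buffer. kobs came from one- or two-exponential decay fits to normalised per-tile medians, and weighted Michaelis–Menten fits then provided kcat and KM.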
# glucosamine-6-phosphate [2] = variants of: B1; experiment: self-cleavage kobs at 640 uM GlcN6P; higher = faster cleavage; RNA array
# Method in brief: as §1
# glucosamine-6-phosphate [3] = variants of: B1; experiment: self-cleavage kobs at 10000 uM GlcN6P; higher = faster cleavage; RNA array
# Method in brief: as §1
# glucosamine-6-phosphate [4] = variants of: B1; experiment: self-cleavage kobs at 160 uM GlcN6P; higher = faster cleavage; RNA array
# Method in brief: as §1
# glucosamine-6-phosphate [5] = variants of: B1; experiment: self-cleavage kobs at 2500 uM GlcN6P; higher = faster cleavage; RNA array
# Method in brief: as §1
Variant,self-cleavage kobs at 40 uM GlcN6P (glucosamine-6-phosphate [1]),self-cleavage kobs at 640 uM GlcN6P (glucosamine-6-phosphate [2]),self-cleavage kobs at 10000 uM GlcN6P (glucosamine-6-phosphate [3]),self-cleavage kobs at 160 uM GlcN6P (glucosamine-6-phosphate [4]),self-cleavage kobs at 2500 uM GlcN6P (glucosamine-6-phosphate [5])
U45G G51C U56G,< 1e-05 s⁻¹,< 1e-05 s⁻¹,< 1e-05 s⁻¹,–,–
U45G G59U,< 1e-05 s⁻¹,–,4.05e-05 ± 1.2e-05 s⁻¹,–,–
U45G G62A C70G C71G,< 1e-05 s⁻¹,–,–,–,–
U45G G63A,< 1e-05 s⁻¹,< 1e-05 s⁻¹,< 1e-05 s⁻¹,< 1e-05 s⁻¹,< 1e-05 s⁻¹
U45G U55G,0.000146 ± 1.5e-05 s⁻¹,–,–,0.000304 ± 4.5e-05 s⁻¹,–
U45G U57A,< 1e-05 s⁻¹,–,–,–,–
U45G U65G,7.22e-05 ± 2.1e-05 s⁻¹,–,–,–,–
U46A A48U U57A G60U C67U C68A,< 1e-05 s⁻¹,–,–,–,–
U46A A64G,0.000102 ± 2.3e-05 s⁻¹,0.000754 ± 0.00015 s⁻¹,–,–,0.00242 ± 0.00047 s⁻¹
U46A C50G A53U C70G,0.000147 ± 6.3e-05 s⁻¹,–,0.000126 ± 3.8e-05 s⁻¹,–,–
U46A C50U,< 1e-05 s⁻¹,< 1e-05 s⁻¹,–,< 1e-05 s⁻¹,–
U46A G59C,< 1e-05 s⁻¹,–,< 1e-05 s⁻¹,< 1e-05 s⁻¹,< 1e-05 s⁻¹
U46A G60C,< 1e-05 s⁻¹,< 1e-05 s⁻¹,< 1e-05 s⁻¹,< 1e-05 s⁻¹,< 1e-05 s⁻¹
U46A G62A,< 1e-05 s⁻¹,–,–,–,< 1e-05 s⁻¹
U46A G62C,< 1e-05 s⁻¹,< 1e-05 s⁻¹,< 1e-05 s⁻¹,< 1e-05 s⁻¹,< 1e-05 s⁻¹
U46A G63U,< 1e-05 s⁻¹,< 1e-05 s⁻¹,< 1e-05 s⁻¹,< 1e-05 s⁻¹,–
U46A G66U,5.04e-05 ± 2.3e-05 s⁻¹,0.000412 ± 7.3e-05 s⁻¹,0.00229 ± 0.00041 s⁻¹,8.12e-05 ± 1.9e-05 s⁻¹,0.00111 ± 0.00027 s⁻¹
U46C A48G,< 1e-05 s⁻¹,–,< 1e-05 s⁻¹,< 1e-05 s⁻¹,< 1e-05 s⁻¹
U46C A53U,3.88e-05 ± 1.2e-05 s⁻¹,0.000471 ± 9.9e-05 s⁻¹,0.00133 ± 0.00028 s⁻¹,0.000145 ± 3.3e-05 s⁻¹,0.0012 ± 0.00023 s⁻¹
U46C C50G,< 1e-05 s⁻¹,< 1e-05 s⁻¹,–,–,–

Variant,self-cleavage kobs at 40 uM GlcN6P (glucosamine-6-phosphate [1]),self-cleavage kobs at 640 uM GlcN6P (glucosamine-6-phosphate [2]),self-cleavage kobs at 10000 uM GlcN6P (glucosamine-6-phosphate [3]),self-cleavage kobs at 160 uM GlcN6P (glucosamine-6-phosphate [4]),self-cleavage kobs at 2500 uM GlcN6P (glucosamine-6-phosphate [5])
U46C C61G,< 1e-05 s⁻¹,< 1e-05 s⁻¹,–,< 1e-05 s⁻¹,< 1e-05 s⁻¹
U46C C68A,< 1e-05 s⁻¹,–,–,–,–
U46C G60C C67A,< 1e-05 s⁻¹,–,< 1e-05 s⁻¹,–,–
U46C G62A,< 1e-05 s⁻¹,–,< 1e-05 s⁻¹,< 1e-05 s⁻¹,< 1e-05 s⁻¹
U46C G62C,< 1e-05 s⁻¹,–,< 1e-05 s⁻¹,–,–
U46C G63C,< 1e-05 s⁻¹,< 1e-05 s⁻¹,–,–,< 1e-05 s⁻¹
U46C G63U,< 1e-05 s⁻¹,–,< 1e-05 s⁻¹,–,–
U46C U55C,0.000129 ± 1.9e-05 s⁻¹,0.00108 ± 0.00013 s⁻¹,0.00515 ± 0.00071 s⁻¹,0.000217 ± 4.2e-05 s⁻¹,0.00291 ± 0.00042 s⁻¹
U46C U56G,5.6e-05 ± 9.5e-06 s⁻¹,0.000736 ± 8.1e-05 s⁻¹,0.00164 ± 0.00018 s⁻¹,0.000159 ± 3e-05 s⁻¹,0.00128 ± 0.00017 s⁻¹
U46G A53U U69C,7.38e-05 ± 2.7e-05 s⁻¹,–,0.00109 ± 0.0003 s⁻¹,–,–
U46G C68G C70G,< 1e-05 s⁻¹,–,–,–,–
U46G C70U,0.000256 ± 2.3e-05 s⁻¹,0.00125 ± 0.0002 s⁻¹,0.00705 ± 0.00083 s⁻¹,0.000556 ± 8.8e-05 s⁻¹,0.00235 ± 0.00055 s⁻¹
U46G G51U,< 1e-05 s⁻¹,< 1e-05 s⁻¹,< 1e-05 s⁻¹,< 1e-05 s⁻¹,< 1e-05 s⁻¹
U46G G63C,< 1e-05 s⁻¹,< 1e-05 s⁻¹,< 1e-05 s⁻¹,< 1e-05 s⁻¹,< 1e-05 s⁻¹
U46G G63U,< 1e-05 s⁻¹,< 1e-05 s⁻¹,< 1e-05 s⁻¹,< 1e-05 s⁻¹,< 1e-05 s⁻¹
U46G U56A,5.1e-05 ± 7.3e-06 s⁻¹,0.000601 ± 0.00017 s⁻¹,0.00224 ± 0.00042 s⁻¹,–,–
U46G U65G,4.1e-05 ± 8.8e-06 s⁻¹,0.000467 ± 7.5e-05 s⁻¹,0.0019 ± 0.0003 s⁻¹,0.000189 ± 3.4e-05 s⁻¹,0.00124 ± 0.00017 s⁻¹
U47A A53U,0.000547 ± 6.1e-05 s⁻¹,–,–,–,–
U47A G59C,< 1e-05 s⁻¹,< 1e-05 s⁻¹,–,< 1e-05 s⁻¹,–
U47A G62U,< 1e-05 s⁻¹,< 1e-05 s⁻¹,–,< 1e-05 s⁻¹,–
